Results taken from patent publication US8722849B2, “Polypeptides” (Novo Nordisk A/S, priority 2011, dated 2014).
At least one read-out could not be matched to a standard name with certainty. Starred links: 1 amine or outer side, 2 acyl side, 3 side chain; linkers in the order of their positions; H or OH if unused. Positions of bridges follow the written chain, without caps; N, C: chain ends. Residues, ends and D or L forms follow the SMILES beside them. *: point of attachment. C20 diacid = O=C(O)CCCCCCCCCCCCCCCCCCC(=O)*; C18 diacid = O=C(O)CCCCCCCCCCCCCCCCC(=O)*; γGlu = O=C(O)[C@H](CCC(=O)[*:2])N[*:1]

Assay: Assay (III) ThT fibrillation assay for physical stability
Format: physicochemical
Conditions: ThT fibrillation assay
Outline: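 Freshly prepared formulations, pH-adjusted, with 1 μM ThT; four or eight replicates incubated at 37 °C under 960 rpm orbital shaking. Fluorescence (ex 444/em 485 nm) read every 20 min; […]. Peptide concentration measured by RP-HPLC before and after the run.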
For `CC[C@H](C)[C@H](NC(=O)[C@@H]1CCCN1C(=O)CNC(=O)[C@H](Cc1ccccc1)NC(=O)[C@H](CC(N)=O)NC(=O)[C@H](CC(N)=O)NC(=O)[C@H](CO)NC(=O)[C@H](CO)NC(=O)[C@H](CCCNC(=N)N)NC(=O)[C@H](Cc1c[nH]cn1)NC(=O)[C@H](CC(C)C)NC(=O)[C@H](Cc1ccccc1)NC(=O)[C@H](CCC(=O)O)NC(=O)[C@H](C)NC(=O)[C@H](CC(C)C)NC(=O)[C@H](CCCNC(=N)N)NC(=O)[C@H](CCC(N)=O)NC(=O)[C@@H](NC(=O)[C@H](C)NC(=O)[C@@H]1CSSC[C@H](NC(=O)[C@H](CCC(=O)O)NC(=O)CC[C@H](NC(=O)CCCCCCCCCCCCCCCCCCC(=O)O)C(=O)O)C(=O)N[C@@H](CC(N)=O)C(=O)N[C@@H]([C@@H](C)O)C(=O)N[C@@H](C)C(=O)N[C@@H]([C@@H](C)O)C(=O)N1)[C@@H](C)O)C(=O)N[C@@H](CC(C)C)C(=O)N1CCC[C@H]1C(=O)N1CCC[C@H]1C(=O)N[C@H](C(=O)N[C@@H](CC(N)=O)C(=O)N[C@H](C(=O)NCC(=O)N[C@@H](CO)C(=O)N[C@@H](CC(N)=O)C(=O)N[C@H](C(=O)N[C@@H](Cc1ccc(O)cc1)C(N)=O)[C@@H](C)O)C(C)C)[C@@H](C)O` [Example 5, N-alpha-[(S)-4-Carboxy-4-(19-carboxynonadecanoylamino)butyryl]-[Glu1,Glu14,His17,Arg18]-pramlintide] ({C20 diacid-γGlu}-ECNTATCATQRLAEFLHRSSNNFGPILPPTNVGSNTY-NH2; disulfide 2-7 (inferred); C-terminus assumed), the “ThT pH 4.0 recovery (%)” value was 0%.
In the case of `CC[C@H](C)[C@H](NC(=O)[C@@H]1CCCN1C(=O)CNC(=O)[C@H](Cc1ccccc1)NC(=O)[C@H](CC(N)=O)NC(=O)[C@H](CC(N)=O)NC(=O)[C@H](CO)NC(=O)[C@H](CO)NC(=O)[C@H](Cc1c[nH]cn1)NC(=O)[C@H](Cc1c[nH]cn1)NC(=O)[C@H](CC(C)C)NC(=O)[C@H](Cc1ccccc1)NC(=O)[C@H](CCC(=O)O)NC(=O)[C@H](C)NC(=O)[C@H](CC(C)C)NC(=O)[C@H](CCCNC(=N)N)NC(=O)[C@H](CCC(N)=O)NC(=O)[C@@H](NC(=O)[C@H](C)NC(=O)[C@@H]1CSSC[C@H](NC(=O)[C@H](CCCCN)NC(=O)CC[C@H](NC(=O)CCCCCCCCCCCCCCCCCCC(=O)O)C(=O)O)C(=O)N[C@@H](CC(N)=O)C(=O)N[C@@H]([C@@H](C)O)C(=O)N[C@@H](C)C(=O)N[C@@H]([C@@H](C)O)C(=O)N1)[C@@H](C)O)C(=O)N[C@@H](CC(C)C)C(=O)N1CCC[C@H]1C(=O)N1CCC[C@H]1C(=O)N[C@H](C(=O)N[C@@H](CC(N)=O)C(=O)N[C@H](C(=O)NCC(=O)N[C@@H](CO)C(=O)N[C@@H](CCC(N)=O)C(=O)N[C@H](C(=O)N1CCC[C@H]1C(N)=O)[C@@H](C)O)C(C)C)[C@@H](C)O` [Example 135, N-alpha-[(S)-4-Carboxy-4-(19-carboxynonadecanoylamino)butyryl]-[Glu14,His17,Gln35,Pro37]-pramlintide] ({C20 diacid-γGlu}-KCNTATCATQRLAEFLHHSSNNFGPILPPTNVGSQTP-NH2; disulfide 2-7 (inferred)), the “ThT pH 4.0 recovery” value was 100% and the “ThT pH 4.0 recovery (%)” value was 100%.
For `CC[C@H](C)[C@H](NC(=O)[C@@H]1CCCN1C(=O)CNC(=O)[C@H](Cc1ccccc1)NC(=O)[C@H](CO)NC(=O)[C@H](CO)NC(=O)[C@H](CO)NC(=O)[C@H](CO)NC(=O)[C@H](CCCNC(=N)N)NC(=O)[C@H](Cc1c[nH]cn1)NC(=O)[C@H](CC(C)C)NC(=O)[C@H](Cc1ccccc1)NC(=O)[C@H](CCC(=O)O)NC(=O)[C@H](C)NC(=O)[C@H](CC(C)C)NC(=O)[C@H](CCCNC(=N)N)NC(=O)[C@H](CCC(N)=O)NC(=O)[C@@H](NC(=O)[C@H](C)NC(=O)[C@@H]1CSSC[C@H](NC(=O)[C@H](Cc2c[nH]cn2)NC(=O)CC[C@H](NC(=O)CCCCCCCCCCCCCCCCCCC(=O)O)C(=O)O)C(=O)N[C@@H](CC(N)=O)C(=O)N[C@@H]([C@@H](C)O)C(=O)N[C@@H](C)C(=O)N[C@@H]([C@@H](C)O)C(=O)N1)[C@@H](C)O)C(=O)N[C@@H](CC(C)C)C(=O)N1CCC[C@H]1C(=O)N1CCC[C@H]1C(=O)N[C@H](C(=O)N[C@@H](CC(=O)O)C(=O)N[C@H](C(=O)NCC(=O)N[C@@H](CO)C(=O)N[C@@H](CC(=O)O)C(=O)N[C@H](C(=O)N[C@@H](Cc1ccc(O)cc1)C(N)=O)[C@@H](C)O)C(C)C)[C@@H](C)O` [Example 9, N-alpha-[(S)-4-Carboxy-4-(19-carboxynonadecanoylamino)butyryl]-[His1,Glu14,His17,Arg18,Ser21,Ser22,Asp31,Asp35]-pramlintide] ({C20 diacid-γGlu}-HCNTATCATQRLAEFLHRSSSSFGPILPPTDVGSDTY-NH2; disulfide 2-7 (inferred); C-terminus assumed), the “ThT pH 4.0 recovery” value was 57% and the “ThT pH 4.0 recovery (%)” value was 57%.
In the case of `CC[C@H](C)[C@H](NC(=O)[C@@H]1CCCN1C(=O)CNC(=O)[C@H](Cc1ccccc1)NC(=O)[C@H](CC(N)=O)NC(=O)[C@H](CC(N)=O)NC(=O)[C@H](CO)NC(=O)[C@H](CO)NC(=O)[C@H](Cc1c[nH]cn1)NC(=O)[C@@H](NC(=O)[C@H](CC(C)C)NC(=O)[C@H](Cc1ccccc1)NC(=O)[C@H](CC(N)=O)NC(=O)[C@H](C)NC(=O)[C@H](CC(C)C)NC(=O)[C@H](CCCNC(=N)N)NC(=O)[C@H](CCC(N)=O)NC(=O)[C@@H](NC(=O)[C@H](C)NC(=O)[C@@H]1CSSC[C@H](NC(=O)[C@H](CCCNC(=N)N)NC(=O)CC[C@H](NC(=O)CCCCCCCCCCCCCCCCCCC(=O)O)C(=O)O)C(=O)N[C@@H](CC(N)=O)C(=O)N[C@@H]([C@@H](C)O)C(=O)N[C@@H](C)C(=O)N[C@@H]([C@@H](C)O)C(=O)N1)[C@@H](C)O)C(C)C)C(=O)N[C@@H](CC(C)C)C(=O)N1CCC[C@H]1C(=O)N1CCC[C@H]1C(=O)N[C@H](C(=O)N[C@@H](CC(N)=O)C(=O)N[C@H](C(=O)NCC(=O)N[C@@H](CO)C(=O)N[C@@H](CC(N)=O)C(=O)N[C@H](C(=O)N1CCC[C@H]1C(N)=O)[C@@H](C)O)C(C)C)[C@@H](C)O` [Example 97] ({C20 diacid-γGlu}-RCNTATCATQRLANFLVHSSNNFGPILPPTNVGSNTP-NH2; disulfide 2-7 (inferred); C-terminus assumed), the “ThT pH 4.0 recovery (%)” value was 0%.
With `CC[C@H](C)[C@H](NC(=O)[C@@H]1CCCN1C(=O)CNC(=O)[C@H](Cc1ccccc1)NC(=O)[C@H](CC(N)=O)NC(=O)[C@H](CC(N)=O)NC(=O)[C@H](CO)NC(=O)[C@H](CO)NC(=O)[C@H](Cc1c[nH]cn1)NC(=O)[C@@H](NC(=O)[C@H](CC(C)C)NC(=O)[C@H](Cc1ccccc1)NC(=O)[C@H](CCC(=O)O)NC(=O)[C@H](C)NC(=O)[C@H](CC(C)C)NC(=O)[C@H](CCCNC(=N)N)NC(=O)[C@H](CCC(N)=O)NC(=O)[C@@H](NC(=O)[C@H](C)NC(=O)[C@@H]1CSSC[C@H](NC(=O)CC[C@H](NC(=O)CCCCCCCCCCCCCCCCCCC(=O)O)C(=O)O)C(=O)N[C@@H](CC(N)=O)C(=O)N[C@@H]([C@@H](C)O)C(=O)N[C@@H](C)C(=O)N[C@@H]([C@@H](C)O)C(=O)N1)[C@@H](C)O)C(C)C)C(=O)N[C@@H](CC(C)C)C(=O)N1CCC[C@H]1C(=O)N1CCC[C@H]1C(=O)N[C@H](C(=O)N[C@@H](CC(N)=O)C(=O)N[C@H](C(=O)NCC(=O)N[C@@H](CO)C(=O)N[C@@H](CC(N)=O)C(=O)N[C@H](C(=O)N1CCC[C@H]1C(N)=O)[C@@H](C)O)C(C)C)[C@@H](C)O` [Example 108, N-alpha-[(S)-4-Carboxy-4-(19-carboxynonadecanoylamino)butyryl]-[des1,Glu14,Pro37]-pramlintide] ({C20 diacid-γGlu}-CNTATCATQRLAEFLVHSSNNFGPILPPTNVGSNTP-NH2; disulfide 1-6 (inferred)) the “ThT pH 4.0 recovery (%)” value was 0%.
In the case of `CC[C@H](C)[C@H](NC(=O)[C@@H]1CCCN1C(=O)CNC(=O)[C@H](Cc1ccccc1)NC(=O)[C@H](CC(N)=O)NC(=O)[C@H](CC(N)=O)NC(=O)[C@H](CO)NC(=O)[C@H](CO)NC(=O)[C@H](Cc1c[nH]cn1)NC(=O)[C@H](Cc1c[nH]cn1)NC(=O)[C@H](CC(C)C)NC(=O)[C@H](Cc1ccccc1)NC(=O)[C@H](CCC(=O)O)NC(=O)[C@H](C)NC(=O)[C@H](CC(C)C)NC(=O)[C@H](CCCNC(=N)N)NC(=O)[C@H](CCC(N)=O)NC(=O)[C@@H](NC(=O)[C@H](C)NC(=O)[C@@H]1CSSC[C@H](NC(=O)CC[C@H](NC(=O)CC[C@H](NC(=O)CCCCCCCCCCCCCCCCC(=O)O)C(=O)O)C(=O)O)C(=O)N[C@@H](CC(N)=O)C(=O)N[C@@H]([C@@H](C)O)C(=O)N[C@@H](C)C(=O)N[C@@H]([C@@H](C)O)C(=O)N1)[C@@H](C)O)C(=O)N[C@@H](CC(C)C)C(=O)N1CCC[C@H]1C(=O)N1CCC[C@H]1C(=O)N[C@H](C(=O)N[C@@H](CC(N)=O)C(=O)N[C@H](C(=O)NCC(=O)N[C@@H](CO)C(=O)N[C@@H](CC(N)=O)C(=O)N[C@H](C(=O)N[C@@H](Cc1ccc(O)cc1)C(N)=O)[C@@H](C)O)C(C)C)[C@@H](C)O` [Example 49, N-alpha-{(S)-4-Carboxy-4-[(S)-4-Carboxy-4-(17-carboxyheptadecanoylamino)butyrylamino]butyryl}-[des1,Glu14,His17]-pramlintide] ({C18 diacid-γGlu-γGlu}-CNTATCATQRLAEFLHHSSNNFGPILPPTNVGSNTY-NH2; disulfide 1-6 (inferred)), the “ThT pH 4.0 recovery (%)” value was 7%.
